Sequences and labels used below:
B1: TPR 5TU (parent)
chain: GGAUCUUCUCGAUCUAACAAAAAAGACAAAUCUGCCACAAAGCUUGAGAGCAUCUUCGGAUGCAGAGGCGGCAGCCUUCGGUGGCGCGAUAGCGCCAACGUUCUCAACUAUGACACGCAAAACGCGUGCUCCGUUGAAUGGAGUUUAUCAUG

Variants at the background level are over-represented here.

The variants in the data set derive from B1. The data set is described as follows: polymerase ribozyme fitness, log enrichment relative to wild type (log ratio); higher = more active; in vitro selection for triplet polymerase activity. The essentials: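 A heterodimeric triplet polymerase ribozyme had each of its subunits mutagenized by PCR into a library, which was transcribed. One round of in vitro selection, done in triplicate, annealed each library with a biotinylated primer, its partner subunit and triplets, then incubated it frozen at −7 °C before gel excision of extended constructs, streptavidin-bead capture and RT-PCR. Fitness is the logarithm of genotype enrichment relative to wild-type enrichment, based on Illumina sequencing of inputs and outputs and inverse-variance-weighted replicate averages. A base-2 logarithm is used, and genotypes were kept only with ≥10 input reads and ≥1 read per output.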
Take GGACCUUCUCGAUCUAACAAAAAAGACAAAUGUGACACAAAGCUUGGGAGCAUCUUCGGAUGCAGAGGCGGCAGCCUUCGGUGGCGCGAUAGCGCCAACGUUCUCAACUAUGACACGCAAAACGCGUGCUCCGUUGAAUGGAGUUUAUCAUG: the “polymerase ribozyme fitness (log ratio)” value is not above -4.2.
Consider GGACCUUCUUCAUCUAACAAAAAAGACAAAUCUGCCACAAUGCUUGAGAGCAUCUUCGGAUGCAGAGGCGGCAGCCUUCGGUGGAGCGAUGGCGCCAACGUUCUCAACUAUGACACGCAAAACGCGUGCUCCGUUGAAUGGAGUUUAUCAUG, for which the “polymerase ribozyme fitness (log ratio)” value was not above -4.2.
The figure for GGACCUUCUCGAUCUAACAAAAAAGACAAAUCUGCCACAAAUCUUGAGAGCAUCUUCGGAUGCAGAGGCGGCAGCCUUCGGUGGCGCGAUAACGCCAACGUUCUCAGCUAUGACACGCAAAACGUGUGCUCCGUUGAAUGGUGUUUAUCAUG is not above -4.2; for GGACCUUCUCGAUCUAAAAAAAAGGACAAAUCUGCCACAAAGCUUGAGAGCAUCUUGGGCUGCAGAGGCGGCAGCCUUCGGUGGCGCGAUAGUGCCAACGUUCUCAACUAUGACACGCAAAACGCGUGCUCCGUUGAAUGGAGUUUAUCAUG it is not above -4.2.
With GGACCUUCUCGAUCUAACAAAAAAGACAAAUCUGCCACAAAGCUUGAGAGUAUCUUCGGAUGCAGAGGCGGCAGCCUUCGGUGGCGCGAUAGCGCAAACGUUCUCAACUAUGACACGCAACACGCGUGCUCCGAUGAAUGGAGUUUAUCAUG, the “polymerase ribozyme fitness (log ratio)” value is -3.3.
With GGACCUUCUCGAUCUAACAAAAAAUACAAAUCUGCCACACUGCUUGAGACCAUCAUCGGAUGCAGAGGCGGCAGCCUUCGGCGGCGCGAUAGCGCCAACGUUCUCAACUAUGACACGCAAAACGCGUGCUCCGUUGAAUGAAGUUUAUCAUG, the “polymerase ribozyme fitness (log ratio)” value is not above -4.2.
GGACCUUCUCGAUCUAACAAAAAAGACAAAUCUGCAACAAAGCUUGCGAGCAUCUUCGGAUGCAGAGGCGGCAGCCUUCGGUGGCGCGAUAGCGCGAACGUUCUCAGCUAUGACACGCAAAACGCGUGCUCUGUUGAAUGGAGUUUAUCGUA: the “polymerase ribozyme fitness (log ratio)” value was not above -4.2.
GGACCUUCUCGAUCUAACAAAAAAGACAAAUCUGCCACAAAGCUUGAGAGCAUCUUCGGAUGCAGAGGCGGCAGCCUUCGGUAGCGGGAUAGCGCCAACGUUCUCAACUAUGACACGCAAAACGCGUGCUCCGUUGAAUGGAGUUUAUCAUG: the “polymerase ribozyme fitness (log ratio)” value was not above -4.2.
The figure for GGACCUUCUAGAUCGAACAAAAAAGACAAAUCUGCCACAAAGCUUGAGAGCAUCUUCGGAUCCUGAGGCGGCAGCCUUCAGUGGCGCGAUAGAGCCAACGUUCUCAACUAUGACAAGCAAAACGCGGGCUUCGUUGAAUGUAGUAUAUCAUG is not above -4.2; for GGACCUUCUCGAUCUAACAAAAAAGACAAAUCUCCCACAAAGCUUGAGAGCAUCUUCGGUUGCAGAGGAGGCAGCCUUCGGUGGCGCGAUAGCGCCAAAGUUCUCAACUAUGACACGCAAAACGCGUGCUCCGUUGAAUGCAGUUUAUCAUG it is not above -4.2; for GGACCUUCUCGAUCUAACAAAAAAGAGCAAUCUGCCACAAAGCUUGAGAGUAACUUCGGGUGGAGAGGCGGCAACCUUCGCUGGCGCGAUAGAGCCAACGUUCUCAACUAUGACACGCAAAACGCGUGCUCCGUUGAAUGGAGUUUAUCAUG it is not above -4.2.
The figure for GGACCUUCUAGAUCUAACGAAAAAGACAAAUCUGCCACAAAGCUUGAGAGCAUCAUCGGAUGCAGAGGCGGCAGCCUUCGGUGGCGCGAUAACGCCAACGUUCUCAACUAUGACACGCAAAACGCGUGCUCCGUUGAAUGGAUUUUAUCAUG is not above -4.2.
Turning to GGACCUUCUCGAUCUAAGAAUAAAGACAAAUCUGCCACAAAGCUUGAGAACAUCUUCGGAUGCAGAGGCGGCAGCCUUCGGUGGCGCGCUAGCGCCAACGUUCUCAACUAUGACACGCAAAACGCGUGCUCCGUUGAAUGUAGUUUAUCAUG, the “polymerase ribozyme fitness (log ratio)” value is not above -4.2.
The value for GGACCUUAUCGAUCUAACAAAAAAGACAAAUCUGCCACAAAGCUAGAGAGCAUCUUCGGAUGCAGAGGCGGUAGCCUUUGGUGGCGCGAUAGUGCCAACGUUCUCAACUAUGACACGCAAAACGCGUGCUCCGUUGAAUGGAGUUUAUCAUG was not above -4.2; that for GGACCUUCUCGAUCUAACAAAAAAGACAAAUCUGCCACAAAGCUUGAGACCAUUUUCGGAUGCAGAGGUGGCUGCGUUCGGUGGCGCGAUCACGCCUACGUUCUCAACUAUGACACGCAAAACGGGUGCUCCGAUGAAUGGAGUUUAUCAUG was not above -4.2; that for GGACAUUCUCGAUCUAACAGAUAUGACAAAUCUGCCACAAAGCUUGAGAGCAUCUUCGGGUGCAGAGGCGGCAGCCUUCGGUGGCGGGAUAGCGCCAACGUUCUCAACUAUGACACGCAAAACGCGUGCUCCGUUGAAGGGAGUUUAUCAUG was not above -4.2.
The figure for GGACCUUCUCGAUCUAACAAAAAAGACAAAUCUGCCACAAAGCUUGAAAGCAUCUUCGGAUGCAGAGGCGGCAGCCUUCGGUGUCGCGAUAGCGCCAACGUUCUCAACUAUGACACGCAAAACGCGUGCUCCGUUGAAUGUAGUUUAUCAUG is not above -4.2; for GGACCUUCUCCAUCUAACAAAAAAGACAAAUCUGCCACAAAUCUUGAGAGCAUCUUCGGAUGCAGAGGCGGCAGCCUUCGGUGGCGCCAUAUCGCCAACGUUCUCAACUAUGACACUCAAAACGCGUGCUCCGUGGAAUGGAGUUUAUCAUG it is not above -4.2; for GGACCUUCUCGAUCUAACAAAAAAGACAAAUCUGCCACAAAGCUUGAGAGCAUCUUCGGAUGCAGAGGCGGCAGCCUUCGGUGGAGCGAUAGCGGCAACGUUCUCAACUAUGACGCGCAAAACGCGUGCUCCGUUGAAUGGAGUUUAUCAUG it is -3.75.
